# Measured values published in the supplement of paper PMC3334620.
# The full ranking holds about 33,000 sequences; the median of “E-score (-0.5 to 0.5)” is about -0.016, and the highest 2% start at about 0.31. This is one part of the list.
# Target: Cst6 (UniProt P40535)
# Assay: PBM E-score (8-mer binding enrichment) (E-score (-0.5 to 0.5)); higher = stronger / more preferred TF binding; most listed sequences are background and not binding sites
# Settings: protein concentration: 200 nM; construct: GST-DNA-binding domain
# Summary of the method: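 Each ungapped eight-base word and its reverse complement, pooled, received an E-score from the Universal PBM Analysis Suite. Underlying scans, normalised with masliner, recorded fluorescent anti-GST bound to GST-tagged yeast transcription factors. These were applied at about 100-200 nM to universal all-10-mer Agilent arrays double-stranded by primer extension.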
row,Sequence,PBM E-score
1,CGCCCGCA,-0.0119
2,CACGCTAA,0.00256
3,AGTGCCTG,-0.181
4,AGCATGCC,-0.0964
5,GGAAGTCA,-0.14
6,GGGGTCAA,-0.0862
7,AAACGAGA,0.0396
8,AATGCTTA,-0.00505
9,GCTGCCCC,-0.255
10,AGGCATGG,-0.071
11,ACCCATAA,-0.0187
12,CAGTTAAC,0.0423
13,GCCCCCTA,-0.333
14,AGATCGAG,-0.0213
15,CGTAAATA,0.27
16,ATTTTCCG,0.209
17,ATTCGTTA,0.141
18,AATCTTGA,0.0369
19,CGGACTGC,-0.0761
20,AATGCATG,0.204
21,ATTGAGCG,-0.0477
22,GTCGATCA,-0.00123
23,GCCCGGTA,-0.297
24,GGTTTCAA,-0.113
25,ACTTTCTC,0.0182

row,Sequence,PBM E-score
1,AACATAAG,0.209
2,CACTCAGG,-0.108
3,AACCCACC,0.0456
4,GACACCGA,0.018
5,AGCAGCTA,-0.0344
6,CCAATCGA,-0.169
7,GATACTTA,0.00497
8,AGTCTCAG,-0.162
9,ATCTACTA,0.217
10,AAGCCATG,-0.124
11,ATGTTAAC,0.124
12,ACTGTTTA,0.0904
13,ATCTCGCG,0.0843
14,GAGCACAC,-0.14
15,CTTCCAAG,-0.245
16,GTTGCATA,0.0892
17,GATCCCCA,-0.0499
18,CGAATCTA,0.0417
19,TGGCAGAA,0.0392
20,CCCTGTTC,-0.255
21,CAACTGGG,-0.191
22,AGGTGAGC,-0.142
23,ACCCCCTG,-0.404
24,GCCTGACC,-0.213
25,AGTGGTGC,-0.141

row,Sequence,PBM E-score
1,ACTCACGG,0.0673
2,ACCGTGGA,-0.184
3,CAGTAAGA,0.0612
4,CCGACGAA,0.0288
5,GCCTAGGC,-0.192
6,ACGTCTAG,0.0566
7,CCTGGCTC,-0.19
8,AGTGACCG,-0.0724
9,CGCGTGGA,-0.139
10,CGTGGCAG,0.00302
11,GTTAGGGA,-0.223
12,ATAGTGGG,-0.238
13,ACCACGCG,-0.00898
14,GTCAACCA,0.0733
15,ATGACGAC,0.431
16,ACTAAACA,0.242
17,CGTCATTA,0.477
18,AACCAACA,0.0484
19,CGTTTATC,0.154
20,ATCATCCC,0.154
21,TGACTCCA,-0.148
22,TTAATAAA,0.307
23,GAATTGGA,0.0141
24,CGTTGCCC,-0.16
25,CCCCTAAG,-0.242

row,Sequence,PBM E-score
1,CACGTAGC,-0.0159
2,CATGAACC,0.08
3,ATACAAAC,0.228
4,GTACTTAA,-0.129
5,CACAGGTC,-0.217
6,ATAGGCCG,-0.324
7,CACGTTCG,-0.149
8,CTAGGAGA,-0.148
9,AACCGCGT,0.153
10,CAACGTCA,0.471
11,TCCAAAAA,0.0923
12,GAGACCGA,-0.128
13,AGCCTGCC,-0.108
14,GGCGCCGA,0.234
15,AACGAACA,0.194
16,AAGACTTC,-0.117
17,CCGATACG,-0.246
18,ACTCCTGG,-0.311
19,CCGTCAGG,-0.107
20,GTAATGGA,0.353
21,GACCATGC,-0.00363
22,CCAGTAAA,-0.0936
23,AGTATTCA,0.114
24,TCATCCCA,0.0516
25,GACTCTAA,-0.0163

row,Sequence,PBM E-score
1,ACCGAGTG,-0.15
2,TCATAAGA,0.162
3,TACATCCA,0.153
4,CGCGGTAC,-0.00078
5,AGGCTGCG,-0.225
6,CCTGGGCC,-0.205
7,TAATTTCA,0.26
8,ACCAAAAG,0.161
9,AATGCAGC,-0.29
10,GGGGCATA,-0.171
11,CCGGATAG,-0.0256
12,ACTTCCCA,-0.0226
13,GCATCAAC,0.114
14,AAAATTTA,0.149
15,CCTGTAAG,-0.117
16,CGAAAAAG,0.228
17,ACGCCCGA,-0.271
18,TATTGAGA,0.163
19,CCTTTAAG,-0.119
20,ACCGGCGG,-0.137
21,ACAGAGAA,-0.0106
22,CGGCCGAC,-0.0661
23,CTAGGTGC,-0.287
24,ACTGGCGG,-0.013
25,GTAAGTCA,0.132

row,Sequence,PBM E-score
1,CGACCGGA,-0.305
2,GTGGAAGA,-0.11
3,CACTCATA,0.248
4,CGATGCCA,-0.0183
5,AATTGTTG,0.0795
6,GATAAAGA,0.0684
7,ACAGATTG,-0.0147
8,AAGGGCTC,-0.307
9,GTGACTCA,0.228
10,ACCACCTG,-0.0871
11,GCAGTCAC,-0.0758
12,CAAACCGC,-0.113
13,ACGCGCAA,0.146
14,ACTTCCAA,-0.0664
15,ATGCACAT,0.0831
16,ATTTGTCA,0.141
17,ATGTAAGA,0.339
18,ACACGACG,0.0371
19,AATCAAGT,0.0239
20,ACTAGAAT,0.16
21,AACTATGT,0.0137
22,ACCAGGGA,-0.123
23,CCGGGGAG,-0.168
24,AGCATTTG,-0.0653
25,AAAGAAGG,-0.047

row,Sequence,PBM E-score
1,GCGAAAGC,-0.138
2,AGTACAGG,0.0732
3,ATAATGTC,0.109
4,CCGTAACA,0.166
5,CGGCTGGC,-0.28
6,ACTTTCGG,-0.168
7,AACGATTC,0.0091
8,CAAGTCGG,-0.175
9,GTAGGCAC,-0.0825
10,CTACACAG,-0.0882
11,ACCAATGC,-0.108
12,CCATCCGG,-0.172
13,CGATATAA,0.225
14,CCGGAAAA,-0.049
15,AGAATTGG,-0.1
16,AATTTGGA,0.0587
17,CAAAGTAA,0.125
18,ACCCTTCG,-0.0964
19,ACTTCAAA,-0.0108
20,CTACGGTA,-0.0789
21,AAGCTCCG,-0.163
22,AGCGAAGA,-0.101
23,AAACACAG,-0.00842
24,TCGTCAAA,0.195
25,CCCGTTAC,0.0254

row,Sequence,PBM E-score
1,GATTTTCC,-0.0413
2,AAACTGAC,0.181
3,TCGGTCCA,-0.101
4,GTACTGTA,-0.18
5,ATGGCGAC,-0.0521
6,ACTAATAG,0.211
7,ACGAACTA,0.0908
8,CTCTTCAA,-0.175
9,AAACTGTC,-0.03
10,ATCCCCTC,-0.17
11,CGTACGAA,0.174
12,CTTGTTAA,0.0436
13,AACTGCCT,0.129
14,CCTGCTTA,-0.0696
15,CTGCTGTA,-0.143
16,GAGATGTA,0.0936
17,GAAGAAGA,-0.077
18,AAACTGCT,-0.114
19,CGGGGTGC,-0.224
20,CCAATAGG,-0.162
21,ATGGTCTA,-0.0477
22,CTATTAGA,-0.00752
23,GAAACGTC,0.286
24,TCTGAACA,0.0379
25,AAATATCA,0.139

row,Sequence,PBM E-score
1,CCCGATAC,-0.262
2,GTGCCAAA,0.0175
3,AAGTTACC,0.13
4,CTACGAAC,0.018
5,CCGGCCCA,-0.328
6,ATACAGAT,0.102
7,ACTAGTCA,-0.147
8,CTCGCATA,0.111
9,AAGGGTTG,0.0749
10,ATTCAAAA,0.231
11,TGATGCCA,0.281
12,CGGTTGTA,-0.185
13,CGGCGAAC,-0.0426
14,CCGCATTA,0.164
15,ATACCCTC,-0.0615
16,AGTTATGA,0.181
17,ATCGAGTA,-0.105
18,CTTTGTGC,0.165
19,TCCACTCA,-0.0386
20,GTGTGCGA,-0.135
21,CGGTCGAC,-0.185
22,GTTGAGGA,0.104
23,AAAATAAA,0.274
24,ATGTTCTC,-0.0109
25,CTACTTTC,0.0613

row,Sequence,PBM E-score
1,AGCCGGGA,-0.0833
2,ATGTCAGC,0.225
3,ACGGTTCT,-0.0103
4,CGCGGCGA,0.27
5,AACGGACG,0.00886
6,AGAGTGAT,0.00831
7,CTTTAACA,0.145
8,GTTAATTA,0.277
9,ATGATCGC,0.085
10,CCCCTCTC,-0.433
11,AGCGGGAA,0.0619
12,ATGACACA,0.349
13,CTTCCTCA,-0.149
14,AATTGATA,0.296
15,AGATCCTG,-0.188
16,CAGTACCA,-0.103
17,GTTACGCA,0.266
18,CCGCATCA,0.196
19,CAGTGGAA,-0.0929
20,CCTTAACC,-0.221
21,AATTGACG,0.259
22,CGGATACA,0.0638
23,ACGATTAC,0.262
24,GATTAGGC,0.0681
25,CATGGCCA,-0.207

row,Sequence,PBM E-score
1,CCAGAGCA,-0.146
2,CTACAAGC,-0.0485
3,GGTAGCGA,-0.227
4,CTCGTTCC,-0.121
5,ACAAAATG,0.244
6,ATACGCTG,-0.107
7,TCCTATCA,-0.157
8,ATTCTATA,0.156
9,CATGGGCG,0.0638
10,CTAAGGTC,-0.115
11,GGACGAGA,-0.014
12,GCCTGAGA,-0.179
13,AAGAACTC,0.0579
14,ATGTCATG,0.425
15,GCAAGCAC,-0.278
16,TATACACA,0.0853
17,CGAGACCA,-0.0838
18,CGTCACAA,0.4
19,ATTCGTAA,0.293
20,ATCATGTA,0.209
21,GATACCGC,-0.0789
22,CAGTTAGA,0.0747
23,AATATTTC,0.27
24,AGTTTGCG,-0.0314
25,TAGGAGCA,-0.198

row,Sequence,PBM E-score
1,CTGCCCTA,-0.202
2,AAGAATGG,-0.116
3,CGATCGTA,-0.0892
4,GATGTCGA,0.0813
5,CTAAGCCC,-0.295
6,CTACCTAG,-0.231
7,AAGGTAAT,0.129
8,CGAGGGAC,-0.349
9,AACTGGCG,0.0737
10,GCACGACA,-0.0194
11,TCGAGAGA,-0.135
12,ACGGAATC,0.0733
13,AAAAGTCG,-0.0593
14,GTGATTAA,0.269
15,GATTCTAC,0.0813
16,CAATCTCA,-0.0515
17,AAACCAGT,-0.0635
18,CGGCCGCA,0.0199
19,AACTCCAT,-0.0241
20,GCGGTTCC,-0.104
21,AAACGCGT,0.0447
22,GCAGCCAC,-0.203
23,ATACTCCA,-0.0155
24,CCCGGTTA,-0.198
25,ACCCTGTG,-0.0662

row,Sequence,PBM E-score
1,CGAACTCA,-0.164
2,AGTTTGAG,0.0309
3,AGTATGAA,0.0821
4,AGACTGCC,0.0708
5,CACCACCG,-0.255
6,ACTAAGCT,0.0716
7,AGAAGCGG,-0.107
8,CCGTGGGC,-0.116
9,AGCCAGTC,-0.244
10,ATGACGAA,0.472
11,CTACCAGC,-0.186
12,ACTCGGAC,-0.156
13,CAGAGGGC,-0.181
14,ACTACAGG,-0.0765
15,CGGCACCG,0.181
16,AATGCCGC,0.284
17,CACGACTC,-0.0976
18,GAACAACC,0.0203
19,CAATGCTC,0.0473
20,ATTGTAAG,-0.0822
21,CAAACTTG,-0.0352
22,CATAGTAG,-0.0432
23,CTATGAGC,-0.0336
24,AAGTCCCC,-0.336
25,AACCCGGG,-0.199

row,Sequence,PBM E-score
1,GAGGGTGA,0.00352
2,TAGCTAGA,0.0187
3,AAGTACGG,0.00603
4,ATGAGGCA,0.118
5,GACGTTGC,0.187
6,ATATCATA,0.315
7,ATATGCGC,0.0289
8,AGGTACCC,-0.362
9,CTTATAGC,-0.00966
10,CATCCAAC,0.157
11,GCAGTCGC,-0.0904
12,ATAGGGGA,-0.247
13,GGCCGTGA,0.14
14,CCACCGAC,-0.163
15,AAAGAGAT,-0.00327
16,TACAGATA,0.138
17,AATCCTGC,0.144
18,ACAACGGT,-0.136
19,ACACGGTA,0.0637
